For test [1], the target named is T1, necdin, endogenous in U2OS cells (human (endogenous in U2OS)) (UniProt Q99608).
T1 sequence: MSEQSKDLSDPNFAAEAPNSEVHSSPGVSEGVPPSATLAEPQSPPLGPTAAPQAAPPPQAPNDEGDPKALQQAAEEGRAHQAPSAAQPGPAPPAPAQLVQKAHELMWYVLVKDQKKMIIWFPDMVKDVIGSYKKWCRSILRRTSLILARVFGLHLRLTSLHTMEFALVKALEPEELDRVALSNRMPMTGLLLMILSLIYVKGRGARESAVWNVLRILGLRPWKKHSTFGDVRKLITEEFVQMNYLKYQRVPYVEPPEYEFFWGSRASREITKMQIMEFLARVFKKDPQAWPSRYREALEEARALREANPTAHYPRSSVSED
Description: co-IP; endogenous proteins in U2OS cell lysate; antibody against necdin or SGT1 or control IgG, protein G agarose, immunoblot. On the technique in general: A western blot detects proteins with antibodies after separation by electrophoresis.

Amino acid sequences for entries named in this document (tags omitted).
UniProt O00327: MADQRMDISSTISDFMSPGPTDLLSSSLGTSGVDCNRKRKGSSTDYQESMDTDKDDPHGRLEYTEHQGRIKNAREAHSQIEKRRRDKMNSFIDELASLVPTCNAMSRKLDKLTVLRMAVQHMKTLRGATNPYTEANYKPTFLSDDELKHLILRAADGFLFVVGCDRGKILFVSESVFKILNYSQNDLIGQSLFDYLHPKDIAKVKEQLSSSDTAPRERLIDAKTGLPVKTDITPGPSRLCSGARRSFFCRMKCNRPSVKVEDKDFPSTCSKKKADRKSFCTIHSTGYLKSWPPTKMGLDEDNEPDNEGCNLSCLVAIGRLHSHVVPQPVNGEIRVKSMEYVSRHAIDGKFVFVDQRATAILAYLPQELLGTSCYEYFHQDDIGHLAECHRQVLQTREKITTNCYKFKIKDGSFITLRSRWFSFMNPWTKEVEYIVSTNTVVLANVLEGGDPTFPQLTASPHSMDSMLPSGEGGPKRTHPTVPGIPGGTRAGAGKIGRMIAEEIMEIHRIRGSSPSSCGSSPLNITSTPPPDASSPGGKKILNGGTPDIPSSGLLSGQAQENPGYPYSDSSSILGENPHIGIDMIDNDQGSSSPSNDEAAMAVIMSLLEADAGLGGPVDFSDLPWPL
UniProt Q9WTL8: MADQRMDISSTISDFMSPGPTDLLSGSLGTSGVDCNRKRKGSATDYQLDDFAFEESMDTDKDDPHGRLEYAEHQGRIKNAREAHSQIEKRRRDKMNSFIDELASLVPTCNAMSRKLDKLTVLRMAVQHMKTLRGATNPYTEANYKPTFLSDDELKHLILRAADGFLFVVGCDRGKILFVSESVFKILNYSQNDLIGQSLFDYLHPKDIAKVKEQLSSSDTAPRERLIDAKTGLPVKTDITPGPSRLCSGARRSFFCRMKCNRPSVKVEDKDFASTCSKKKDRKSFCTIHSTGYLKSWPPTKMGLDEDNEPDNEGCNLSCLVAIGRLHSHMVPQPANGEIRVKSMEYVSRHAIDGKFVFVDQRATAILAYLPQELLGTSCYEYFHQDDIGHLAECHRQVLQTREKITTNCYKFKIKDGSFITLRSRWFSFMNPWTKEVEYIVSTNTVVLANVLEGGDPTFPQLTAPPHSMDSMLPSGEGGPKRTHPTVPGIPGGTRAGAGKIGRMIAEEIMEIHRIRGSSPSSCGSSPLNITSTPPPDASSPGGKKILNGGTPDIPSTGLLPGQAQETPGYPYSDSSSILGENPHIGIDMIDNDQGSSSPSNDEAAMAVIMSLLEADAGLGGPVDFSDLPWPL

Test [2] deals with T2, FLAG-tagged necdin fragment, amino acids 1-115 (UniProt P25233).
T2 sequence: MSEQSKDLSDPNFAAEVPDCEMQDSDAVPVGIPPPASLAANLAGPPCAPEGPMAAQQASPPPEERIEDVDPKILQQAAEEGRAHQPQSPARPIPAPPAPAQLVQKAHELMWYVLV
Kind of test: co-IP; two tagged proteins co-expressed in HEK293T cells; lysis buffer 150 mM NaCl, 1% NP-40, 2 mM EDTA, 50 mM Tris pH 8.0; antibody to the tag overnight at 4 C, protein G agarose, immunoblot.

Test [3] has as its target T3, FLAG-tagged necdin fragment, amino acids 1-170 (UniProt P25233).
T3 sequence: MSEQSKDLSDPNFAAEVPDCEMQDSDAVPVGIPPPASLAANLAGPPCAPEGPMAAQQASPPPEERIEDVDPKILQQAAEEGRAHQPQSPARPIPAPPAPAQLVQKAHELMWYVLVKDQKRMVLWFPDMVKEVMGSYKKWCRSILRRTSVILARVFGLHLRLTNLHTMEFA
The description is as above.

Test [4] concerns the target T4, FLAG-tagged necdin fragment, amino acids 116-170 (UniProt P25233).
T4 sequence: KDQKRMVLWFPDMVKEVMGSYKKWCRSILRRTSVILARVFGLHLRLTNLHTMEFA
The description is as above.

The target of test [5] is T5, FLAG-tagged necdin fragment, amino acids 190-325 (UniProt P25233).
T5 sequence: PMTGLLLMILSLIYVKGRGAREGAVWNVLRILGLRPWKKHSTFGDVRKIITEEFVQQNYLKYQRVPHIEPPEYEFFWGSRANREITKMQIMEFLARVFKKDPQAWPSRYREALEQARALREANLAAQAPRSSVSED
The test is described as above.

Test [6] concerns the target T6, FLAG-tagged necdin, full length (UniProt P25233).
T6 sequence: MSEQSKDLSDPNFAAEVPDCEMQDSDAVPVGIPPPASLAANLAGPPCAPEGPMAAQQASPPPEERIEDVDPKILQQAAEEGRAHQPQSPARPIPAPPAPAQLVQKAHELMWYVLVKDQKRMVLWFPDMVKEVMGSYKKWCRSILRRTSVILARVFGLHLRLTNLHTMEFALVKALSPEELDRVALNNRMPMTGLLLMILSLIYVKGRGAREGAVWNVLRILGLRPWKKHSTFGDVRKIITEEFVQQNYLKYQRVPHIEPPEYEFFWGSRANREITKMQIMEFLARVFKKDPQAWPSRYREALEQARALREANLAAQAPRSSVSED
The test is described as above.

No constants are given. Whether binding was seen depends on the method and setting. Binding seen in cells or lysates may run through a third protein. Some results given as binding are weak or reduced against the parent protein; the word gives no strength. For part of these data: Where a sequence is shown, tags or fusion partners need not be part of it.

Turning to “BMAL1, endogenous in U2OS cells (from UniProt O00327 1-626)”, in test [1], the binding result is “binds”.

Consider “HA-tagged BMAL1 (from UniProt Q9WTL8 1-632)”, for which the binding result in test [2] was “no binding”; in test [3], “binds”; in test [4], “binds”; in test [5], “no binding”; in test [6], “binds”.

The values are drawn from PMC7430654.
